Reference: the supplement of paper PMC12217912
The list shows a part of the results. Sequences were assembled here from the parent chain. Values near 0.05 are background.

B1: TEV protease; numbered along this chain (parent)
chain: MGESLFKGPRDYNPISSSICHLTNESDGHTTSLYGIGFGPFIITNKHLFRRNNGTLVVQSLHGVFKVKDTTTLQQHLVDGRDMIIIRMPKDFPPFPQKLKFREPQREERICLVTTNFQTKSMSSMVSDTSCTFPSGDGIFWKHWIQTKDGQCGSPLVSTRDGFIVGIHSASNFTNTNNYFTSVPKNFMELLTNQEAQQWVSGWRLNADSVLWGGHKVFMVKPEEPFQPVKEATQL

Variants of: B1
Experiment: raw area under fraction-flipped curve 0-4 h after induction (AUC4h, not background-subtracted), DNA-recorder readout of cleavage of the substrate (dimensionless); higher = more cleavage of the substrate by the protease variant
Conditions: temperature: 34 °C; time window: 0-4 h after rhamnose induction
Description: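 In vivo DNA recorder in E. coli TOP10(DE3) ΔrhaA at 34 °C. Each TEVp single-site mutant (parent TEVp 0) is paired with a single-site variant of the 7-mer TEVs (canonical ENLYFQ|S). The substrate sits between flexible linkers in a Bxb1-sfGFP-TEVs-SsrA fusion, so cleavage stabilises Bxb1 and speeds flipping of a recombination array, read by NGS. The value is the raw area under the fraction-flipped curve over 0-4 h after rhamnose induction (AUC4h), with ≥20 reads per time point. It is not background-subtracted; inactive controls average about 0.047.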
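Further: Bxb1 expression induced with 0.2% (w/v) L-rhamnose at OD600 near 0.5, cultures sampled hourly, flipped fraction per protease–substrate barcode pair counted by paired-end Illumina sequencing.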

Row | Variant | area with substrate ANLYFQS | area with substrate DNLYFQS | area with substrate GNLYFQS | area with substrate HNLYFQS | area with substrate KNLYFQS | area with substrate LNLYFQS | area with substrate PNLYFQS | area with substrate WNLYFQS | area with substrate YNLYFQS | area with substrate CNLYFQS | area with substrate FNLYFQS | area with substrate INLYFQS | area with substrate MNLYFQS | area with substrate NNLYFQS | area with substrate SNLYFQS | area with substrate TNLYFQS | area with substrate VNLYFQS | area with substrate QNLYFQS | area with substrate RNLYFQS
1 | I139F | 0.056 | 0.0708 | 0.0687 | 0.067 | 0.0461 | 0.0616 | 0.0675 | 0.0589 | 0.0598 |  |  |  |  |  |  |  |  |  | 
2 | I139M | 0.0837 |  |  | 0.0716 | 0.0727 | 0.0597 | 0.0738 | 0.0544 | 0.069 | 0.0802 | 0.0385 | 0.0566 | 0.0667 | 0.0688 | 0.0933 | 0.0468 | 0.0537 |  | 
3 | I139Y | 0.0754 | 0.0686 |  | 0.0688 | 0.0698 | 0.0595 | 0.0655 | 0.063 | 0.0368 |  | 0.0793 | 0.06 |  | 0.0668 |  | 0.0555 | 0.0442 |  | 
4 | F140A | 0.0256 |  |  | 0.0398 |  | 0.0394 | 0.06 | 0.083 | 0.043 | 0.0655 |  |  | 0.0435 |  |  |  |  | 0.0643 | 
5 | F140E | 0.0682 |  |  | 0.0609 | 0.0684 | 0.0643 | 0.0557 | 0.0648 | 0.0562 | 0.0569 | 0.0803 | 0.0505 |  | 0.0523 | 0.0551 | 0.0598 | 0.0625 | 0.0593 | 0.042
6 | W141G | 0.0627 |  | 0.0642 | 0.0563 |  |  | 0.0588 | 0.0529 | 0.0498 | 0.0356 |  | 0.055 |  | 0.0522 | 0.0623 |  | 0.0779 | 0.051 | 
7 | W141Q | 0.0525 | 0.0635 |  | 0.0378 | 0.0553 | 0.0567 |  | 0.0531 | 0.0518 |  | 0.0499 |  |  |  | 0.0419 | 0.0599 |  |  | 0.0645
8 | K142H | 0.0753 |  | 0.0723 | 0.0706 | 0.0722 | 0.0649 | 0.0704 | 0.0618 | 0.0689 | 0.0767 | 0.0619 | 0.07 | 0.0685 | 0.0665 | 0.0729 |  | 0.0755 | 0.0621 | 0.0709
9 | K142M | 0.0961 |  |  | 0.0692 |  |  |  |  | 0.0676 | 0.0687 | 0.0623 | 0.08 | 0.0829 | 0.0701 |  | 0.0529 | 0.0722 | 0.113 | 
10 | H143K | 0.038 |  |  | 0.0582 |  | 0.0668 |  | 0.0555 | 0.051 | 0.0612 |  | 0.0328 | 0.0459 |  | 0.0578 | 0.0613 |  | 0.0608 | 0.0505
11 | H143L | 0.0612 |  |  | 0.0865 |  | 0.0568 | 0.0578 | 0.055 | 0.0673 | 0.0686 |  | 0.0524 |  | 0.0607 |  |  |  | 0.112 | 
12 | H143W | 0.0661 |  |  | 0.0124 | 0.0695 |  | 0.0614 | 0.0548 | 0.0538 | 0.0542 | 0.0597 | 0.0451 | 0.043 |  | 0.0593 | 0.0635 |  | 0.049 | 0.0562
13 | I145Y | 0.0621 |  | 0.067 | 0.063 |  |  | 0.0556 | 0.0647 | 0.0658 | 0.0585 | 0.0714 | 0.0556 | 0.0758 | 0.0449 | 0.0732 | 0.0621 | 0.0626 | 0.0682 | 0.0653
14 | K148F | 0.0783 |  | 0.0698 | 0.0681 |  | 0.0653 |  | 0.0654 |  | 0.0623 |  |  | 0.0619 |  | 0.0768 | 0.0819 |  | 0.0724 | 
